Measurements from the supplement of paper PMC10126150.
Values marked as one replicate rest on one cluster of the flow cell; about a third of the high ones do not repeat.

Test system: ATP
Test: switch fluorescence ratio, 500 uM ATP over buffer (Cy3 cluster intensity, sum of 5 cycles each) (fold (ratio)); higher = stronger signal-on switching upon ATP binding; sequences stand for … in TCGTCGGCAGCGTCAGATGTGTATAAGAGACAGTTTTTTTTTTTTTTTTTTTTTTTTT…TC
Settings: aptamer strand: ATP DNA aptamer (quencher-CACCTGGGGGAGTATTGCGGAGGAAGG + anchor), 100 nM annealed; ATP concentration: 500 uM; one replicate
Procedure, shortened: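 For every switch-domain sequence, the fluorescence ratio is the mean of per-cluster values, each being summed target-cycle Cy3 intensity over summed buffer-cycle Cy3 intensity. Clusters outside 100-1000 RFU were excluded. On a modified Illumina MiSeq flow-cell, the Cy3-labelled switching-strand clusters were annealed to 100 nM quencher-labelled ATP aptamer, imaged in selection buffer and then after 15 min with 500 uM ATP at 22 °C. Five such cycles were run, with NaOH stripping and re-annealing between them.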
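Further: ATP exposure 15 min at 22 °C before imaging.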

TTTGCCTTGA
switch fluorescence ratio: 1.03

TAGTTCTTA
switch fluorescence ratio: 0.993

CTCGGGGAAG
switch fluorescence ratio: 0.985

ACAGGCAGCA
switch fluorescence ratio: 1.04

AGTATTTCTC
switch fluorescence ratio: 0.989

GGTGTTTTC
switch fluorescence ratio: 0.969

GGTGACGTTT
switch fluorescence ratio: 1.06

AGAATCTCAC
switch fluorescence ratio: 1.03

CGGTCTCGTT
switch fluorescence ratio: 0.998

GCTGTAAGTG
switch fluorescence ratio: 0.975

GAAAAACAAA
switch fluorescence ratio: 1.06

GAGTGGGTGC
switch fluorescence ratio: 1.03

CTGATCGAAG
switch fluorescence ratio: 1.03

TGAGATTTAC
switch fluorescence ratio: 0.966

TGTAAACCAT
switch fluorescence ratio: 0.965

GGGGTTTAG
switch fluorescence ratio: 1

TGTGCTCTGA
switch fluorescence ratio: 0.969

TTATGTAAGA
switch fluorescence ratio: 0.948

TTGCTGCTAT
switch fluorescence ratio: 1.11

GGGACCAGTG
switch fluorescence ratio: 1.05

GACCCGCAGG
switch fluorescence ratio: 0.965

TGTGCTGCC
switch fluorescence ratio: 1.05

ATCAGTACTT
switch fluorescence ratio: 0.967

AATCTGTAGG
switch fluorescence ratio: 0.949

TCTCGGATTT
switch fluorescence ratio: 1.01

CCTTTAGTA
switch fluorescence ratio: 0.98

TAAGATGAAC
switch fluorescence ratio: 0.967

AGCCGCGC
switch fluorescence ratio: 1.02

GGAAGGGACC
switch fluorescence ratio: 0.931

AGCCTCCTGC
switch fluorescence ratio: 1.02

AGAACATTCA
switch fluorescence ratio: 1.11

TTCGGACTCG
switch fluorescence ratio: 1.02

CAGAATTAGC
switch fluorescence ratio: 0.963

GGTAAATTGG
switch fluorescence ratio: 0.974

GGACATGGCC
switch fluorescence ratio: 1.01

GGGGTTAGGC
switch fluorescence ratio: 1.08

GCATAGCGAC
switch fluorescence ratio: 1.32

GATACGGAAC
switch fluorescence ratio: 1.24

GGTCTTACGC
switch fluorescence ratio: 1.05

TCGAGGTTT
switch fluorescence ratio: 0.958

GGAACCGTAA
switch fluorescence ratio: 1.4

ATTTCAAGCC
switch fluorescence ratio: 1.04

TTGATTGGAG
switch fluorescence ratio: 1.05

GCTCCGACTA
switch fluorescence ratio: 4.7

ACTCAATTC
switch fluorescence ratio: 1.23

AAGTACGTGA
switch fluorescence ratio: 1.21

GGCGGGCAGT
switch fluorescence ratio: 0.99

GTCAAATATA
switch fluorescence ratio: 1.03

TGACACGACT
switch fluorescence ratio: 1.03

CGGATTCGCC
switch fluorescence ratio: 1

ATACATAGTT
switch fluorescence ratio: 1.04

TGGCTTGAAT
switch fluorescence ratio: 1.04

ACTCCTCTCC
switch fluorescence ratio: 1.82

GGACACAATG
switch fluorescence ratio: 1.05

AGATCCGGTC
switch fluorescence ratio: 0.975

GGCGTGAGGG
switch fluorescence ratio: 1.01

GCGTGTGCAG
switch fluorescence ratio: 1.04

GTTGCCAGGA
switch fluorescence ratio: 1.03

TTCTAATCG
switch fluorescence ratio: 0.939

CACCTTCATT
switch fluorescence ratio: 1.12

GCCGCTGGTA
switch fluorescence ratio: 0.96

GATATTT
switch fluorescence ratio: 0.976

CGACCACAGA
switch fluorescence ratio: 1.38

GGTTGAACTT
switch fluorescence ratio: 1

ATGCAGCTC
switch fluorescence ratio: 1.16

GTCCGGGTAA
switch fluorescence ratio: 1.07

AAGGGTGTGC
switch fluorescence ratio: 0.922

ACGTAACGTT
switch fluorescence ratio: 1.14

TCACATGCCG
switch fluorescence ratio: 0.993

CGAGGGTGA
switch fluorescence ratio: 1.05

CCGGCTTTGA
switch fluorescence ratio: 1.04

ACTTCAAAAA
switch fluorescence ratio: 1.01

GGATCAGGAG
switch fluorescence ratio: 1.03

TCGGTCAGCG
switch fluorescence ratio: 1.01

AGAGTTTTGT
switch fluorescence ratio: 0.971

AACTTAGTGT
switch fluorescence ratio: 1.03

GCACGACTTG
switch fluorescence ratio: 0.98

GTTAATTCAG
switch fluorescence ratio: 0.974

TTGGGCACTC
switch fluorescence ratio: 1.02

AGACCGCAGA
switch fluorescence ratio: 1.09

GGCCCAGTTT
switch fluorescence ratio: 1.02

AGTCTGGTT
switch fluorescence ratio: 1.02

TGCCGCCCTA
switch fluorescence ratio: 1.01

ATTTCCTAGA
switch fluorescence ratio: 0.987

CCGAACGGGT
switch fluorescence ratio: 1.25
